Data taken from PMC9724675.
Results are given in words; binding and its absence hold for the method and conditions named. Binding seen in cells or lysates may run through a third protein. Some binding calls cover weakened binding; strength is not graded here. For part of these data: Tags and fused reporters may be left off the sequences shown. Each block holds one substance with its values, some of them ahead of it.

Sequences of proteins named here, by UniProt entry; tags and fusion partners are left off. A change or cut given only in a name is not applied to a line headed by its entry. A line that says so, or that is headed by a name, gives the form on record, which may keep a tag or linker.
UniProt O95069: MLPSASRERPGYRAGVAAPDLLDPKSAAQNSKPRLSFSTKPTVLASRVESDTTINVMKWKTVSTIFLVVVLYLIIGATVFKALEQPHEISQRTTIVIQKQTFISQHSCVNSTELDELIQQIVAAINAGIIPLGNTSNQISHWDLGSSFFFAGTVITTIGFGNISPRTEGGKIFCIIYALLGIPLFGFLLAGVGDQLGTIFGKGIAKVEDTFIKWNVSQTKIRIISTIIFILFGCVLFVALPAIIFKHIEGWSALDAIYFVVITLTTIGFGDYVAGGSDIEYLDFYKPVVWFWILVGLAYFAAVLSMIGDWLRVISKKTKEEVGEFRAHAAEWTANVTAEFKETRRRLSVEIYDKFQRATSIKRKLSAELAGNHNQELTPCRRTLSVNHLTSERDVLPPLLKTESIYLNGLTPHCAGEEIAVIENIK
VN-TREK-1c and VC-TREK-1c (human TREK-1c fused to a half of Venus) (O95069-3, form named): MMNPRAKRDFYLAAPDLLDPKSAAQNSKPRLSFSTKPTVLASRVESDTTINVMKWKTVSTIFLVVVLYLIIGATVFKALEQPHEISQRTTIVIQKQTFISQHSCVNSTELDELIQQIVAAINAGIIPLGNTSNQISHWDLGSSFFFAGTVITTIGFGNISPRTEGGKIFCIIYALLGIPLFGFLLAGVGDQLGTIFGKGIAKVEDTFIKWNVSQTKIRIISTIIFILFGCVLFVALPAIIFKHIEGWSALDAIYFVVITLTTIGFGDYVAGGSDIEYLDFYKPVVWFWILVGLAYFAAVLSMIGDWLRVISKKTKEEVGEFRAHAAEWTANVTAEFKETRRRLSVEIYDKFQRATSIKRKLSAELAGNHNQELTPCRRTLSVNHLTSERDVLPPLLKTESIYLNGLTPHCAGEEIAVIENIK
UniProt P24588: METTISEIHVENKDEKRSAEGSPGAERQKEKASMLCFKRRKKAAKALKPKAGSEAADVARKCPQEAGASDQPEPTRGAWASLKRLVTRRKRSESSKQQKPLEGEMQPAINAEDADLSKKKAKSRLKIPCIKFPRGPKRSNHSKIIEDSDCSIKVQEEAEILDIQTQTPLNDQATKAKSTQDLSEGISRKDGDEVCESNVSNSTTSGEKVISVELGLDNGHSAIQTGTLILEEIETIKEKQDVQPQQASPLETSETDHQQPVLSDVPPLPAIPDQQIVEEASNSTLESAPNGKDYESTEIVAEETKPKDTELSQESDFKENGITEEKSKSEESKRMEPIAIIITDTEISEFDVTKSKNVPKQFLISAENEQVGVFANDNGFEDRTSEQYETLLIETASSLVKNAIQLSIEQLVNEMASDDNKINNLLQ

Tests used:
[1] = target: YFP-tagged TREK-1 (human) (UniProt O95069); assay: co-IP; HEK293 lysates, immunoprecipitation of YFP-tagged TREK-1 (anti-GFP or TREK-1 antibodies), western blot; with or without overexpressed POPDC1-Myc or AKAP79; with or without ISO (10 μM, 10 min)
[2] = target: VN-TREK-1c and VC-TREK-1c (human TREK-1c fused to a half of Venus) (human) (UniProt O95069); assay: split reporter; BiFC (split Venus, VN and VC) in HEK293 cells, which express endogenous POPDC1 and POPDC2; plate reader and live-cell imaging; with or without ISO (10 μM, 10 min, 37°C; dose-response)
[3] = target: T1, POPDC1-VN and POPDC1-VC (mouse POPDC1 fused to a half of Venus) (mouse) (UniProt Q9ES83); assay: as above
T1 sequence: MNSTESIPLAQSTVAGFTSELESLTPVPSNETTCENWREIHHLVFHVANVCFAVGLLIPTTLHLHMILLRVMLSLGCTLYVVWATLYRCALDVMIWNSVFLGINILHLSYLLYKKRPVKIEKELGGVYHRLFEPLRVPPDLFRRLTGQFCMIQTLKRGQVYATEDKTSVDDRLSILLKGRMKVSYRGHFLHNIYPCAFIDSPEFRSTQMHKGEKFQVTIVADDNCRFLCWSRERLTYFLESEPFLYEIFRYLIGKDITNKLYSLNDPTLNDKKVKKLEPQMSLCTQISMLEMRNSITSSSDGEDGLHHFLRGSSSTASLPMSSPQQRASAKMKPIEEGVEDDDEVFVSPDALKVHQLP

[4] = target: VN-TREK-1c and VC-TREK-1c (human TREK-1c fused to a half of Venus) (human) (UniProt O95069); assay: split reporter; BiFC (split Venus, VN and VC) in COS-7 cells, which lack detectable endogenous POPDC proteins; plate reader, normalised to DAPI
[5] = target: POPDC1-Myc (Popeye domain-containing protein 1, Myc-tagged) (mouse) (UniProt Q9ES83); assay: co-IP; HEK293 lysates, immunoprecipitation of Myc-tagged POPDC with anti-MYC, western blot (anti-FLAG, anti-GFP)

binding [1]: no binding
Substance: AKAP79 (from UniProt P24588 1-427)

binding [2]: binds
binding [3]: binds
binding [4]: binds
Substance: VN-TREK-1c and VC-TREK-1c (human TREK-1c fused to a half of Venus) (from UniProt O95069-3 1-422)

binding [5]: binds
Substance: YFP-tagged TREK-1 (from UniProt O95069 1-426)

binding [5]: no binding
Substance: GFP-tagged epidermal growth factor receptor (EGFR) (from UniProt P00533 25-1210)
